# In the supplement of paper PMC4604168 (melanoma cell lines):
# The list shows a part of the results. Single values are uncertain, as repeats are few or missing.
# How the values were obtained:
# Assay in all cases: cell count relative to DMSO control; melanoma cells; higher = more viable cells
# Conditions in all cases: library dose: low library concentration; 72 h; first compound 0.4 µM
# MeWo = test system: MeWo
# RPMI7951 = test system: RPMI7951
# RVH-421 = test system: RVH-421
# SkMel28 = test system: SkMel28
# SkMel2 = test system: SkMel2
# SkMel30 = test system: SkMel30
# UACC62 = test system: UACC62
# MZ2-MEL = test system: MZ2-MEL
# SkMel5 = test system: SkMel5
# UACC257 = test system: UACC257
# 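Also: cell number obtained by counting DAPI-stained nuclei in high-throughput microscope images with image analysis software, screen run in 1,536-well plates.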
Structure (SMILES),cell count (MeWo),cell count (RPMI7951),cell count (RVH-421),cell count (SkMel28),cell count (SkMel2),cell count (SkMel30),cell count (UACC62),cell count (MZ2-MEL),cell count (SkMel5),cell count (UACC257)
Cn1sc(=O)n(Cc2ccccc2)c1=O + C=C(c1ccc(C(=O)O)cc1)c1cc2c(cc1C)C(C)(C)CCC2(C)C [Bexarotene] (partner dose 2 µM),96.4%,78.4%,110%,86.5%,90.6%,116%,96.3%,–,–,–
C[C@@H](N)c1ccc(C(=O)Nc2ccnc3[nH]ccc23)cc1 + Cn1c(=O)n(-c2ccc(C(C)(C)C#N)cc2)c2c3cc(-c4cnc5ccccc5c4)ccc3ncc21 [NVP-BEZ235] (partner dose 0.004 µM),66.3%,64.7%,63.4%,60.1%,104%,87.9%,90%,70.9%,–,–
CCCCCCCCCCCCCCCCCCOP(=O)([O-])OC1CC[N+](C)(C)CC1 [Perifosine] + Cn1cncc1[C@@](N)(c1ccc(Cl)cc1)c1ccc2c(c1)c(-c1cccc(Cl)c1)cc(=O)n2C [tipifarnib] (partner dose 0.01 µM),87.5%,36.6%,80.6%,74.5%,74.5%,89.6%,77.4%,–,111%,83.5%
C[C@@H](N)c1ccc(C(=O)Nc2ccnc3[nH]ccc23)cc1 + Cn1cnc2c(F)c(Nc3ccc(Br)cc3Cl)c(C(=O)NOCCO)cc21 [selumetinib] (partner dose 0.015 µM),68.1%,86.9%,76.1%,90.3%,87.2%,84%,98.6%,83%,–,–
Cn1sc(=O)n(Cc2ccccc2)c1=O + CC(=O)c1c(C)c2cnc(Nc3ccc(N4CCNCC4)cn3)nc2n(C2CCCC2)c1=O [palbociclib] (partner dose 0.04 µM),82.2%,84.1%,89.8%,114%,84.9%,69.9%,103%,88%,–,–
CCCCCCCCCCCCCCCCCCOP(=O)([O-])OC1CC[N+](C)(C)CC1 [Perifosine] + CO[C@H]1C[C@@H]2CC[C@@H](C)[C@@](O)(O2)C(=O)C(=O)N2CCCC[C@H]2C(=O)O[C@H]([C@H](C)C[C@@H]2CC[C@@H](OCCO)[C@H](OC)C2)CC(=O)[C@H](C)/C=C(\C)[C@@H](O)[C@@H](OC)C(=O)[C@H](C)C[C@H](C)/C=C/C=C/C=C/1C [everolimus] (partner dose 0.02 µM),78%,76.4%,112%,61.6%,–,67.8%,66.5%,–,–,–
CCCCCCCCCCCCCCCCCCOP(=O)([O-])OC1CC[N+](C)(C)CC1 [Perifosine] + CC(C)C[C@H](NC(=O)[C@H](Cc1ccccc1)NC(=O)c1cnccn1)B(O)O [Bortezomib] (partner dose 0.001 µM),95.5%,42.5%,75.7%,83.5%,74.7%,76.4%,95.9%,107%,–,–
Cn1sc(=O)n(Cc2ccccc2)c1=O + C#Cc1cccc(Nc2ncnc3cc(OCCOC)c(OCCOC)cc23)c1 [erlotinib] (partner dose 0.8 µM),80.3%,82.5%,103%,82.7%,98.3%,86.9%,104%,97.1%,–,–
Cn1sc(=O)n(Cc2ccccc2)c1=O + Nc1ccn([C@@H]2O[C@H](CO)[C@@H](O)C2(F)F)c(=O)n1 [gemcitabine] (partner dose 0.0004 µM),106%,100%,95.5%,109%,112%,104%,94.2%,–,–,–
Cn1sc(=O)n(Cc2ccccc2)c1=O + Clc1ccc(Nc2nnc(Cc3ccncc3)c3ccccc23)cc1 [vatalanib] (partner dose 2 µM),80.5%,106%,122%,92.9%,95.9%,85.9%,85.2%,101%,–,–
C[C@@H](N)c1ccc(C(=O)Nc2ccnc3[nH]ccc23)cc1 + C[C@]1(c2nc3c(C(N)=O)cccc3[nH]2)CCCN1 [Veliparib] (partner dose 1.4 µM),71.1%,80.1%,73.3%,61.6%,–,113%,82.8%,70.6%,–,–
C[C@@H](N)c1ccc(C(=O)Nc2ccnc3[nH]ccc23)cc1 + Cn1nnc2c(C(N)=O)ncn2c1=O [temozolomide] (partner dose 2 µM),81.1%,90.6%,50.9%,67.2%,95.3%,97%,91.1%,–,–,–
CCCCCCCCCCCCCCCCCCOP(=O)([O-])OC1CC[N+](C)(C)CC1 [Perifosine] + COc1ccc(C2=N[C@@H](c3ccc(Cl)cc3)[C@@H](c3ccc(Cl)cc3)N2C(=O)N2CCNC(=O)C2)c(OC(C)C)c1 [Nutlin-3] (partner dose 0.1 µM),103%,85.7%,104%,106%,110%,104%,101%,112%,–,–
